Reference: patent US10344060B2 (priority 2013, dated 2019)
Read-outs that look alike come from different tables or passages of the source. For at least one compound, name, drawing or mass did not settle the structure.

Legend:
Assay type in all cases: cell-based
[1] = target: mNav1.7 (Mus musculus, UniProt Q62205); conditions: PatchXpress, tonic block, mouse Nav1.7; read-out: PX mNav1.7 Tonic IC50
[2] = target: rNav1.7 (Rattus norvegicus, UniProt O08562); conditions: PatchXpress, tonic block, rat Nav1.7; read-out: PX rNav1.7 Tonic IC50
[3] = target: hNav1.7 (Homo sapiens, UniProt Q15858); conditions: read-out: PX hNav1.7 Tonic IC50
[4] = target: hNav1.5 (Homo sapiens, UniProt Q14524); conditions: read-out: PX hNav1.5 Tonic IC50
Chain of hNav1.5 (Q14524 whole entry): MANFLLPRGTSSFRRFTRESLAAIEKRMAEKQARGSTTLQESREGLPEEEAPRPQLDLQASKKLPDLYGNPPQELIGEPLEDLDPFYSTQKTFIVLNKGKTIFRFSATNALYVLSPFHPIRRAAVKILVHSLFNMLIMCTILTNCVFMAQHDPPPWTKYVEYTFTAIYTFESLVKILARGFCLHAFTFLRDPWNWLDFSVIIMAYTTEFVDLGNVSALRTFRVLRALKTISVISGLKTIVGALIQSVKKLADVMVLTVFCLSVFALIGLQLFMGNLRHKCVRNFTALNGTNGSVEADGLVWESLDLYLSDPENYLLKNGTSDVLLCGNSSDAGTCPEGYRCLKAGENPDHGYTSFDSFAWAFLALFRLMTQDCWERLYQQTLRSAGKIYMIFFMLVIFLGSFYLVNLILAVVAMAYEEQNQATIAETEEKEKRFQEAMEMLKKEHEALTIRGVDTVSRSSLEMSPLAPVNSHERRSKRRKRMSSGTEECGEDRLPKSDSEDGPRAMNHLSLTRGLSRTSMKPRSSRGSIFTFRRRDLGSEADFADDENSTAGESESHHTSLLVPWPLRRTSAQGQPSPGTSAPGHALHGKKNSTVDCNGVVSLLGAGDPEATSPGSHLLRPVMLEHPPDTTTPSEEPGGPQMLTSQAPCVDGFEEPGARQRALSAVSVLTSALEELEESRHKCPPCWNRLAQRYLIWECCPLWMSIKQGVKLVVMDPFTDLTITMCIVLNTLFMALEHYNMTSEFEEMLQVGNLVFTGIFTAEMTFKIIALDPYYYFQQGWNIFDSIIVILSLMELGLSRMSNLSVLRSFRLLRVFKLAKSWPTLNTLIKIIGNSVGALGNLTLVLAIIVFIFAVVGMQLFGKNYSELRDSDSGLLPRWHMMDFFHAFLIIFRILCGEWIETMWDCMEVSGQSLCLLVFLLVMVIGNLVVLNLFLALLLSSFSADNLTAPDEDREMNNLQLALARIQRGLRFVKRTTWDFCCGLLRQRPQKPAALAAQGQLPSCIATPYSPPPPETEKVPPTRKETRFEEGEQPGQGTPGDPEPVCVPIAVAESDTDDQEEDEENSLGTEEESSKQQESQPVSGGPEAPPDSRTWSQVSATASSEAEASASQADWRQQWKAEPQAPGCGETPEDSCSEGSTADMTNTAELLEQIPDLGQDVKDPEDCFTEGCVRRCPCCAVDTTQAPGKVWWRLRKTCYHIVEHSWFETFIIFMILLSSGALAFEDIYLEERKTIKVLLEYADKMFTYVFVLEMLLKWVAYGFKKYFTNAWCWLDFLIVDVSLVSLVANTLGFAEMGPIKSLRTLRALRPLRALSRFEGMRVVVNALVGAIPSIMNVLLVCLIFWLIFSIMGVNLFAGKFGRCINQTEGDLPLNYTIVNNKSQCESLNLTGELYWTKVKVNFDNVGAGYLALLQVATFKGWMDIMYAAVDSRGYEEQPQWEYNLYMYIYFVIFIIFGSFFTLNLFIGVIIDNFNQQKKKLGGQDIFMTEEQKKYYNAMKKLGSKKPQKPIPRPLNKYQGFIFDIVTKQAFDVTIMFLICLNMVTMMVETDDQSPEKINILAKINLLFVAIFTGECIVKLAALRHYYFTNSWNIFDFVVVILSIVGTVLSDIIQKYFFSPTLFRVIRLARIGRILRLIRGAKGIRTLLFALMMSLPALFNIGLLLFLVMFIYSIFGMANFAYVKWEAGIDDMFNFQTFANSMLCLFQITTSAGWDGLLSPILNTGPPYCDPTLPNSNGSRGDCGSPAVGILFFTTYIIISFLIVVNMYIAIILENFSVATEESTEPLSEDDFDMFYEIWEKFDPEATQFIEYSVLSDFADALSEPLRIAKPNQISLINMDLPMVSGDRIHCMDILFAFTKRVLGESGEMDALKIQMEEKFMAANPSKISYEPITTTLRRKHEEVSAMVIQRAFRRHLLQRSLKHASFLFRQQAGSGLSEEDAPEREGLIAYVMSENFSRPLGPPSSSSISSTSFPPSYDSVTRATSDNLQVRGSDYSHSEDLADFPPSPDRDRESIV

[5] = target: hNav1.4 (Homo sapiens, UniProt P35499); conditions: read-out: PX hNav1.4 Tonic IC50
Chain of hNav1.4 (P35499 whole entry): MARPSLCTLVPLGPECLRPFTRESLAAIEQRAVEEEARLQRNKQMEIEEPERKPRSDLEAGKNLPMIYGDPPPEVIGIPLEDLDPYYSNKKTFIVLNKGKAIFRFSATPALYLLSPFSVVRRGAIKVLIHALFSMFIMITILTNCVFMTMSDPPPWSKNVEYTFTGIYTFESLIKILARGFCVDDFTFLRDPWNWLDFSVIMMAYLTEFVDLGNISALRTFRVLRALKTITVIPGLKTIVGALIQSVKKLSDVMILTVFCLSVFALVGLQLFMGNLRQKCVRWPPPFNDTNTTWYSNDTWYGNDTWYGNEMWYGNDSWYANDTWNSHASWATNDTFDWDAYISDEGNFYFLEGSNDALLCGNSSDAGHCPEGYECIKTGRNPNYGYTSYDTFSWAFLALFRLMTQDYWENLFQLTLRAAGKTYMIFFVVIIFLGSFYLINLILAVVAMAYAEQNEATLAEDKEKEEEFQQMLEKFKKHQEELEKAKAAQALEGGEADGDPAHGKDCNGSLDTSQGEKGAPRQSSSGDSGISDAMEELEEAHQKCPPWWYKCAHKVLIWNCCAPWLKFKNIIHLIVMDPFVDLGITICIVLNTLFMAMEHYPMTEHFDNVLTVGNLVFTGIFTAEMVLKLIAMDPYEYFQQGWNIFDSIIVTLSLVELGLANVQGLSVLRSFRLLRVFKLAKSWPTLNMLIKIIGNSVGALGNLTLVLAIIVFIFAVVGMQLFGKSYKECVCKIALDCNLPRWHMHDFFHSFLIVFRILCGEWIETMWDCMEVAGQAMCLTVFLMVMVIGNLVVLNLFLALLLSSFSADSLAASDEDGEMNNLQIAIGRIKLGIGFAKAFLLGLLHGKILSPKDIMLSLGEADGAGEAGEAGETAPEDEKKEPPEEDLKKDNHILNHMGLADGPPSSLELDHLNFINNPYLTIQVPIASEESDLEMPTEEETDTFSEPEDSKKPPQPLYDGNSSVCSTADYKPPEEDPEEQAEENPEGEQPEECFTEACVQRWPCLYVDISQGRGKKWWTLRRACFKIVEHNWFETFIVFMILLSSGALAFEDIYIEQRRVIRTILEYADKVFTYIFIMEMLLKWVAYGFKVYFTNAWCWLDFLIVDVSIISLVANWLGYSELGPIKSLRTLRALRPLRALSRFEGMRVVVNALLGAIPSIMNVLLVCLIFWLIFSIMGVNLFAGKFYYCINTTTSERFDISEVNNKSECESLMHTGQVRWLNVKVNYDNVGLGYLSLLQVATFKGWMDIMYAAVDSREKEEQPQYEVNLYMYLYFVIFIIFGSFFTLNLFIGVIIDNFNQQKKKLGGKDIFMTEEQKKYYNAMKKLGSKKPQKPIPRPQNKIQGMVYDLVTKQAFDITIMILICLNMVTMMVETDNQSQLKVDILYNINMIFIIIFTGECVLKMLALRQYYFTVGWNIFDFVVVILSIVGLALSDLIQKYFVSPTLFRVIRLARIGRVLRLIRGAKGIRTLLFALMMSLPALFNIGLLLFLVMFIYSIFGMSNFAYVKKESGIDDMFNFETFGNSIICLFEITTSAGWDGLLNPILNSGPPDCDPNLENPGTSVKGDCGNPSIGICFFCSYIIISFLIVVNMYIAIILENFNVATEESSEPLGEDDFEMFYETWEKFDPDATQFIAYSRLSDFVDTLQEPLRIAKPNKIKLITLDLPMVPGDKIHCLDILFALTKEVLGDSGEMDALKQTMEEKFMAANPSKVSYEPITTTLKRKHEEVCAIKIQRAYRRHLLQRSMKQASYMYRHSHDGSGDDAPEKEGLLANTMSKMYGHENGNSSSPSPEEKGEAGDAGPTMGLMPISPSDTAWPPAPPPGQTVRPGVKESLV

Row | SMILES | IC50 ([4]; PatchXpress, tonic, Table 11) [µM] | IC50 ([5]; PatchXpress, tonic, Table 11) [µM] | IC50 ([3]; PatchXpress, tonic, Table 11) [µM] | also measured
1 | CCCC[C@@H]1NC(=O)[C@H](Cc2c[nH]c3ccccc23)NC(=O)[C@H](CCCCN)NC(=O)[C@H](CCC(N)=O)NC(=O)[C@@H](NC(=O)[C@H](Cc2ccc(O)cc2)NC(=O)[C@@H](N)CC#N)CSSC[C@@H]2NC(=O)[C@@H]3CSSC[C@@H](C(=O)N[C@@H](CCCNC(=N)N)C(=O)N[C@@H](CCCCN)C(=O)N[C@@H](CCC(=O)O)C(=O)N[C@H](C(N)=O)[C@@H](C)CC)NC(=O)[C@H](Cc4c[nH]c5ccccc45)NC(=O)[C@H](CC(C)C)NC(=O)[C@H](CCCCN)NC(=O)[C@H](CSSC[C@H](NC(=O)[C@H]([C@@H](C)O)NC(=O)[C@H](Cc4c[nH]c5ccccc45)NC1=O)C(=O)N[C@@H](CC(=O)O)C(=O)N[C@@H](CO)C(=O)N[C@@H](CCCCN)C(=O)N[C@@H](CCCNC(=N)N)C(=O)N[C@@H](C)C(=O)N3)NC(=O)[C@H](CCCNC(=N)N)NC(=O)[C@H](CC(C)C)NC(=O)CNC(=O)[C@H](Cc1cn(CCCOCCOCCOCCOCCOCCOCCOCCOCCOCCOCCN)nn1)NC2=O |  |  |  | IC50 [1]: 0.0261 µM; IC50 [2]: 0.00545 µM; IC50 ([3]; PatchXpress, tonic block, human Nav1.7): 0.0117 µM
2 | CCCC[C@@H]1NC(=O)[C@H](Cc2c[nH]c3ccccc23)NC(=O)[C@H](CCCCN)NC(=O)[C@H](CCC(N)=O)NC(=O)[C@@H](NC(=O)[C@H](Cc2ccc(O)cc2)NC(=O)[C@@H](N)CCCCNC(=O)CCOCCOCCOCCOCCOCCOCCOCCOCCOCCOCCOCCOCCN)CSSC[C@@H]2NC(=O)[C@@H]3CSSC[C@@H](C(=O)N[C@@H](CCCNC(=N)N)C(=O)N[C@@H](CCCCN)C(=O)N[C@@H](CCC(=O)O)C(=O)N[C@@H](Cc4c[nH]c5ccccc45)C(N)=O)NC(=O)[C@H](Cc4c[nH]c5ccccc45)NC(=O)[C@H](CC(C)C)NC(=O)[C@H](CCCCN)NC(=O)[C@H](CSSC[C@H](NC(=O)[C@H]([C@@H](C)O)NC(=O)[C@H](Cc4c[nH]c5ccccc45)NC1=O)C(=O)N[C@@H](CC(=O)O)C(=O)N[C@@H](CO)C(=O)N[C@@H](CCCCN)C(=O)N[C@@H](CCCNC(=N)N)C(=O)N[C@@H](C)C(=O)N3)NC(=O)[C@H](CCCNC(=N)N)NC(=O)[C@H](CC(C)C)NC(=O)CNC(=O)[C@H](CCC(=O)O)NC2=O [compound 458] | 1.65 | 0.309 | 0.00816 | 
3 | CCCC[C@@H]1NC(=O)[C@H](Cc2c[nH]c3ccccc23)NC(=O)[C@H](CCCCN)NC(=O)[C@H](CCC(N)=O)NC(=O)[C@@H](NC(=O)[C@H](Cc2ccc(O)cc2)NC(=O)[C@H](CCC)NC(=O)[C@@H](N)CC(C)C)CSSC[C@@H]2NC(=O)[C@@H]3CSSC[C@@H](C(=O)N[C@@H](CCCNC(=N)N)C(=O)N[C@@H](CCCCN)C(=O)N[C@@H](CCC(=O)O)C(=O)N[C@H](C(N)=O)[C@@H](C)CC)NC(=O)[C@H](Cc4c[nH]c5ccccc45)NC(=O)[C@H](CC(C)C)NC(=O)[C@H](CCCCN)NC(=O)[C@H](CSSC[C@H](NC(=O)[C@H]([C@@H](C)O)NC(=O)[C@H](Cc4c[nH]c5ccccc45)NC1=O)C(=O)N[C@@H](CC(=O)O)C(=O)N[C@@H](CO)C(=O)N[C@@H](CCCCN)C(=O)N[C@@H](CCCNC(=N)N)C(=O)N[C@@H](CCCCNC(=O)CCOCCOCCOCCOCCOCCOCCOCCOCCOCCOCCOCCOCCN)C(=O)N3)NC(=O)[C@H](CCCNC(=N)N)NC(=O)[C@H](CC(C)C)NC(=O)CNC(=O)[C@H](CCC(=O)O)NC2=O [compound 470] | 5.03 | 0.456 | 0.0135 | 
4 | CCCC[C@@H]1NC(=O)[C@H](Cc2c[nH]c3ccccc23)NC(=O)[C@H](CCCCN)NC(=O)[C@H](CCC(N)=O)NC(=O)[C@@H](NC(=O)[C@H](Cc2ccc(O)cc2)NC(=O)[C@H](CCC)NC(=O)[C@@H](N)CC(C)C)CSSC[C@@H]2NC(=O)[C@@H]3CSSC[C@@H](C(=O)N[C@@H](CCCNC(=N)N)C(=O)N[C@@H](CCCCN)C(=O)N[C@@H](CCC(=O)O)C(=O)N[C@H](C(N)=O)[C@@H](C)CC)NC(=O)[C@H](Cc4c[nH]c5ccccc45)NC(=O)[C@H](CC(C)C)NC(=O)[C@H](CCCCN)NC(=O)[C@H](CSSC[C@H](NC(=O)[C@H]([C@@H](C)O)NC(=O)[C@H](Cc4c[nH]c5ccccc45)NC1=O)C(=O)N[C@@H](CC(=O)O)C(=O)N[C@@H](CO)C(=O)N[C@@H](CCCCN)C(=O)N[C@@H](CCCNC(=N)N)C(=O)N[C@@H](C)C(=O)N3)NC(=O)[C@H](CCCNC(=N)N)NC(=O)[C@H](CC(C)C)NC(=O)CNC(=O)[C@H](CCCCNC(=O)CCOCCOCCOCCOCCOCCOCCOCCOCCOCCOCCOCCOCCN)NC2=O [compound 471] | 3.27 | 0.19 | 0.0296 | 
5 | CCCC[C@@H]1NC(=O)[C@H](Cc2c[nH]c3ccccc23)NC(=O)[C@H](CCCCN)NC(=O)[C@H](CCC(N)=O)NC(=O)[C@@H](NC(=O)[C@H](Cc2ccc(O)cc2)NC(=O)[C@H](CCC)NC(=O)[C@H](N)CC(C)C)CSSC[C@@H]2NC(=O)[C@@H]3CSSC[C@@H](C(=O)N[C@@H](CCCNC(=N)N)C(=O)N[C@@H](CCCCN)C(=O)N[C@@H](CCC(=O)O)C(=O)N[C@H](C(N)=O)[C@@H](C)CC)NC(=O)[C@H](Cc4c[nH]c5ccccc45)NC(=O)[C@H](CC(C)C)NC(=O)[C@H](CCCCN)NC(=O)[C@H](CSSC[C@H](NC(=O)[C@H]([C@@H](C)O)NC(=O)[C@H](Cc4c[nH]c5ccccc45)NC1=O)C(=O)N[C@@H](CC(=O)O)C(=O)N[C@@H](CO)C(=O)N[C@@H](CCCCN)C(=O)N[C@@H](CCCNC(=N)N)C(=O)N[C@@H](CCCCNC(=O)CCOCCOCCOCCOCCOCCOCCOCCOCCOCCOCCOCCOCCN)C(=O)N3)NC(=O)[C@H](CCCNC(=N)N)NC(=O)[C@H](CC(C)C)NC(=O)CNC(=O)[C@H](CCC(=O)O)NC2=O [compound 472] | 4.98 | 0.604 | 0.0143 | 
6 | CCCC[C@@H]1NC(=O)[C@H](Cc2c[nH]c3ccccc23)NC(=O)[C@H](CCCCN)NC(=O)[C@H](CCC(N)=O)NC(=O)[C@@H](NC(=O)[C@H](Cc2ccc(O)cc2)NC(=O)[C@H](CCC)NC(=O)[C@H](N)CC(C)C)CSSC[C@@H]2NC(=O)[C@@H]3CSSC[C@@H](C(=O)N[C@@H](CCCNC(=N)N)C(=O)N[C@@H](CCCCN)C(=O)N[C@@H](CCC(=O)O)C(=O)N[C@H](C(N)=O)[C@@H](C)CC)NC(=O)[C@H](Cc4c[nH]c5ccccc45)NC(=O)[C@H](CC(C)C)NC(=O)[C@H](CCCCN)NC(=O)[C@H](CSSC[C@H](NC(=O)[C@H]([C@@H](C)O)NC(=O)[C@H](Cc4c[nH]c5ccccc45)NC1=O)C(=O)N[C@@H](CC(=O)O)C(=O)N[C@@H](CO)C(=O)N[C@@H](CCCCN)C(=O)N[C@@H](CCCNC(=N)N)C(=O)N[C@@H](C)C(=O)N3)NC(=O)[C@H](CCCNC(=N)N)NC(=O)[C@H](CC(C)C)NC(=O)CNC(=O)[C@H](CCCCNC(=O)CCOCCOCCOCCOCCOCCOCCOCCOCCOCCOCCOCCOCCN)NC2=O [compound 473] | 2.26 | 0.429 | 0.0125 | 
7 | CCCC[C@@H]1NC(=O)[C@H](Cc2c[nH]c3ccccc23)NC(=O)[C@H](CCCCN)NC(=O)[C@H](CCC(N)=O)NC(=O)[C@@H](NC(=O)[C@H](Cc2ccc(O)cc2)NC(=O)[C@@H](N)CC#N)CSSC[C@@H]2NC(=O)[C@@H]3CSSC[C@@H](C(=O)N[C@@H](CCCNC(=N)N)C(=O)N[C@@H](CCCCN)C(=O)N[C@H](C(=O)N[C@@H](Cc4c[nH]c5ccccc45)C(N)=O)[C@@H](C)CC)NC(=O)[C@H](Cc4c[nH]c5ccccc45)NC(=O)[C@H](CC(C)C)NC(=O)[C@H](CCCCN)NC(=O)[C@H](CSSC[C@H](NC(=O)[C@H]([C@@H](C)O)NC(=O)[C@H](Cc4c[nH]c5ccccc45)NC1=O)C(=O)N[C@@H](CC(=O)O)C(=O)N[C@@H](CO)C(=O)N[C@@H](CCCCN)C(=O)N[C@@H](CCCNC(=N)N)C(=O)N[C@@H](C)C(=O)N3)NC(=O)[C@H](CCCCNC(=O)CCOCCOCCOCCOCCOCCOCCOCCOCCOCCOCCOCCOCCN)NC(=O)[C@H](CC(C)C)NC(=O)CNC(=O)[C@H](CCC(=O)O)NC2=O [compound 476] | 9.32 | 1.64 | 0.131 | 
8 | CCCC[C@@H]1NC(=O)[C@H](Cc2c[nH]c3ccccc23)NC(=O)[C@H](CCCCN)NC(=O)[C@H](CCC(N)=O)NC(=O)[C@@H](NC(=O)[C@H](Cc2ccc(O)cc2)NC(=O)[C@H](CC#N)NC(=O)[C@@H](N)CCCCN)CSSC[C@@H]2NC(=O)[C@@H]3CSSC[C@@H](C(=O)N[C@@H](CCCNC(=N)N)C(=O)N[C@@H](CCCCN)C(=O)N[C@@H](CCC(=O)O)C(=O)N[C@H](C(N)=O)[C@@H](C)CC)NC(=O)[C@H](Cc4c[nH]c5ccccc45)NC(=O)[C@H](CC(C)C)NC(=O)[C@H](CCCCN)NC(=O)[C@H](CSSC[C@H](NC(=O)[C@H]([C@@H](C)O)NC(=O)[C@H](Cc4c[nH]c5ccccc45)NC1=O)C(=O)N[C@@H](CC(=O)O)C(=O)N[C@@H](CO)C(=O)N[C@@H](CCCCN)C(=O)N[C@@H](CCCNC(=N)N)C(=O)N[C@@H](CCCCNC(=O)[C@@H](N)Cc1cn(CCOCCOCCOCCOCCOCCOCCOCCOCCOCCOCCN)nn1)C(=O)N3)NC(=O)[C@H](CCCNC(=N)N)NC(=O)[C@H](CC(C)C)NC(=O)CNC(=O)[C@H](CCC(=O)O)NC2=O [compound 891] |  |  |  | IC50 [4]: 3.99 µM; IC50 [5]: 0.402 µM; IC50 [3]: 0.00609 µM
